Data as given in PubChem BioAssay (NCATS).
Some of the results follow. Shown are side measurements of this screen, not its main read-out; they come without a call. Compounds called inactive in the main read-out are mostly missing here.

Assay: qHTS Assay for Lipid Storage Modulators (AID 1519)
Settings: Drosophila S3 cells, BODIPY lipid droplet/cell ratio, laser cytometry; measured here: lipid channel max response; cells loaded with oleic acid
Summary of the method: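 Cells seeded at 5,000 per well were treated with compounds over a concentration series and loaded with oleic acid (400 uM, as added). Lipid droplet fluorescence (488 nm excitation, 500-530 nm channel) was read by laser-scanning cytometry and normalized to 20 uM Triacsin C.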

| Compound | max response |
| --- | --- |
| Cn1cc(-c2nc3cnc(N4CCNCC4)nc3n(CCc3ccccc3)c2=O)c2ccccc21 | -80.8% |
| N#Cc1ccc(CN2CC[C@@]3(CCCN(C(=O)c4ccco4)C3)C2)cc1 | 30.4% |
| CN(C)c1ncnc2ccc(-c3ccc4c(c3)OCO4)cc12 | 37% |
| Cc1c(CC(C)(C)C(=O)O)n(Cc2ccc(Cl)cc2)c2ccc(F)cc12 | 76.2% |
| COCCn1c(=O)c(-c2ccc(Cl)cc2)nc2cnc(Oc3ccccc3)nc21 | 20.4% |
| Cc1nc2cnc(N3CCN(C)CC3)nc2n(CCc2ccccc2)c1=O | 30.5% |
| COc1cccc(Cn2c(=O)c(-c3cc(F)cc(F)c3)nc3cncnc32)c1 | 6.43% |
| COc1cccc(Cn2c(=O)c(-c3cccs3)nc3cncnc32)c1 | 39.9% |
| COc1ccc(Oc2ncc3nc(-c4cccc(C#N)c4)c(=O)n(CCC#N)c3n2)cc1 | -3.48% |
| FC(F)(F)c1ccccc1-c1nccc(NCCN2CCOCC2)n1 | 38.1% |
| CCNc1ncc2nc(C)c(=O)n(CCOC)c2n1 | 20% |
| C[N+](C)(C)CCCCCNCC12CC3CC(CC(C3)C1)C2 | 32.2% |
| CNC1C(O)C2OC3OC(C)CC(=O)[C@@]3(O)O[C@H]2[C@H](NC)C1O (stereo not given in full) | 46.2% |
| Cc1ccccc1-c1nccc(-n2ccnc2)n1 | 17.5% |
| COc1ccc(-c2nc3cnc(OC)nc3n(CCC#N)c2=O)cc1 | 32.5% |
| COCCn1c(=O)c(-c2ccc(OC)cc2)nc2cnc(N3CCOCC3)nc21 | 9.48% |
| CN(C)C(=O)c1ccc(-c2nc(N(C)Cc3ccco3)c3ccccc3n2)cc1 | 28.7% |
| COCCn1c(=O)c(-c2cccc(C#N)c2)nc2cnc(Oc3ccc(OC)cc3)nc21 | -43% |
| COc1ccc(-c2nc3cnc(N4CCOCC4)nc3n(Cc3cccc(OC)c3)c2=O)cc1 | 34.1% |
| COCCn1c(=O)c(-c2cc(F)cc(F)c2)nc2cnc(Oc3cccc(Cl)c3)nc21 | -1.98% |

| Compound | max response |
| --- | --- |
| COc1ncc2nc(C)c(=O)n(C)c2n1 | 28.8% |
| CN(C)c1nc(-c2ccccc2C(F)(F)F)nc2ccccc12 | 33.2% |
| Cn1c(=O)c(CCc2ccccc2)nc2cnc(Nc3ccccc3)nc21 | 30.5% |
| Cc1cnc(CNc2ncnc3ccc(-c4ccccc4C)cc23)cn1 | 15.7% |
| Cn1c(=O)[nH]c(=O)c2[nH]cnc21 | 38.7% |
| COc1cccc(C=NC=Nc2cccc(OC)c2)c1 | 100% |
| O=c1c(-c2ccc(F)cc2)nc2cnc(N3CCOCC3)nc2n1Cc1ccc(F)cc1 | 31.3% |
| COc1ccc(-n2c(=O)c(CCc3ccccc3)nc3cnc(N4CCOCC4)nc32)cc1 | 36.3% |
| Cc1cccc(CNc2ncncc2-c2cccc(NS(C)(=O)=O)c2)c1 | 31% |
| CN(C)c1ccc(-c2ccc3ncnc(N(C)Cc4ccco4)c3c2)cc1 | 20.6% |
| O=c1cc(-c2cccc(O)c2)oc2cccc(O)c12 | 101% |
| COc1ccc(NS(=O)(=O)c2ccc(N)cc2)nn1 | 32.3% |
| CCCCC1C(=O)N(c2ccccc2)N(c2ccc(O)cc2)C1=O (stereo not given) | -88.2% |
| Cn1c(=O)c2c(ncn2CC(O)CO)n(C)c1=O (stereo not given) | 34.1% |
| COc1ccc(-c2nc3cnc(Nc4ccccc4)nc3n(CCC#N)c2=O)cc1 | -35.8% |
| CCNc1ncc2nc(-c3cc(F)cc(F)c3)c(=O)n(C3CC3)c2n1 | -32.9% |
| COc1ccccc1CCn1c(=O)c(-c2cccs2)nc2cncnc21 | 7.78% |
| COc1cccc(Cn2c(=O)cnc3cnc(OCc4ccccc4)nc32)c1 | 29.7% |
| O=c1c(-c2cccs2)nc2cncnc2n1C1CC1 | 35% |
| CN(C)c1ncc2nc(-c3ccc(Cl)cc3)c(=O)n(C3CC3)c2n1 | 17.4% |
